# The list shows a part of the results.
# Columns and labels:
# Assay in all cases: glycan array binding signal (z-score within array); higher = stronger binding
# Details in all cases: glycan notation: IUPAC condensed, linker removed
# [1] = target: Gal(b1-4)GlcNAc(b1-3)Gal(b1-4)GlcNAc(b1-6)[Gal(b1-3)]GalNAc
# Summary of the method: (§1)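 Glycan array binding is given as a within-array Z-score, which can be read as non-binding when negative. The arrays, 3228 of them, came from the Consortium for Functional Glycomics database and were retained only where the protein sequence was available. Z-scores were averaged across arrays of the same protein sequence at different concentrations or buffers and across linkers.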
# [2] = target: Gal(b1-4)GlcNAc(b1-3)Gal(b1-4)[Fuc(a1-3)]GlcNAc(b1-3)Gal(b1-4)[Fuc(a1-3)]GlcNAc
# Summary of the method: as §1
# [3] = target: Gal(b1-4)GlcNAc(b1-3)GalNAc
# Summary of the method: as §1
# [4] = target: Gal(b1-4)GlcNAc(b1-3)[Fuc(a1-3)GlcNAc(b1-6)]Gal(b1-4)Glc
# Summary of the method: as §1
# [5] = target: Gal(b1-4)GlcNAc(b1-3)[Gal(b1-4)GlcNAc(b1-6)]Gal(b1-4)GlcNAc
# Summary of the method: as §1
# [6] = target: Gal(b1-4)GlcNAc(b1-3)[GlcNAc(b1-6)]Gal(b1-4)GlcNAc
# Summary of the method: as §1
# [7] = target: Gal(b1-4)GlcNAc(b1-6)Gal(b1-4)GlcNAc
# Summary of the method: as §1
# [8] = target: Gal(b1-4)GlcNAc(b1-6)GalNAc
# Summary of the method: as §1
# [9] = target: Gal(b1-4)GlcNAc(b1-6)[Gal(b1-3)]GalNAc
# Summary of the method: as §1
# [10] = target: Gal(b1-4)GlcNAc(b1-6)[Gal(b1-4)GlcNAc(b1-3)]GalNAc
# Summary of the method: as §1
# [11] = target: Gal(b1-4)GlcNAc6P
# Summary of the method: as §1
# [12] = target: Gal(b1-6)Gal
# Summary of the method: as §1
# [13] = target: Gal3S(b1-3)GalNAc
# Summary of the method: as §1
# [14] = target: Gal3S(b1-3)GlcNAc
# Summary of the method: as §1
# [15] = target: Gal3S(b1-3)[Fuc(a1-4)]GlcNAc
# Summary of the method: as §1
# [16] = target: Gal3S(b1-4)Glc
# Summary of the method: as §1
# [17] = target: Gal3S(b1-4)Glc6S
# Summary of the method: as §1
# [18] = target: Gal3S(b1-4)GlcNAc
# Summary of the method: as §1
# [19] = target: Gal3S(b1-4)[Fuc(a1-3)]Glc6S
# Summary of the method: as §1
# [20] = target: Gal3S(b1-4)[Fuc(a1-3)]GlcNAc
# Summary of the method: as §1
# [21] = target: Gal3S(b1-4)[Fuc(a1-3)]GlcNAc6S
# Summary of the method: as §1
# [22] = target: Gal3S4S(b1-4)GlcNAc
# Summary of the method: as §1
# [23] = target: Gal3S6S(b1-4)GlcNAc
# Summary of the method: as §1
# [24] = target: Gal3S6S(b1-4)GlcNAc6S
# Summary of the method: as §1
# [25] = target: Gal4S(b1-4)GlcNAc
# Summary of the method: as §1
# [26] = target: Gal4S6S(b1-4)GlcNAc
# Summary of the method: as §1
# [27] = target: Gal6P(b1-4)GlcNAc
# Summary of the method: as §1
# [28] = target: Gal6S(b1-3)GlcNAc
# Summary of the method: as §1
# [29] = target: Gal6S(b1-3)GlcNAc6S
# Summary of the method: as §1
# [30] = target: Gal6S(b1-4)Glc
# Summary of the method: as §1
# [31] = target: Gal6S(b1-4)Glc6S
# Summary of the method: as §1
# [32] = target: Gal6S(b1-4)GlcNAc
# Summary of the method: as §1
# [33] = target: Gal6S(b1-4)GlcNAc6S
# Summary of the method: as §1
# [34] = target: GalNAc(a1-3)Gal
# Summary of the method: as §1
# [35] = target: GalNAc(a1-3)GalNAc
# Summary of the method: as §1
# [36] = target: GalNAc(a1-3)GalNAc(b1-3)Gal(a1-4)Gal(b1-4)Glc
# Summary of the method: as §1
# [37] = target: GalNAc(a1-3)GalNAc(b1-3)Gal(a1-4)Gal(b1-4)GlcNAc
# Summary of the method: as §1
# [38] = target: GalNAc(b1-3)Gal
# Summary of the method: as §1
# [39] = target: GalNAc(b1-3)Gal(a1-4)Gal(b1-4)GlcNAc
# Summary of the method: as §1
# [40] = target: GalNAc(b1-3)Gal(a1-4)Gal(b1-4)GlcNAc(b1-3)Gal(b1-4)Glc
# Summary of the method: as §1
# [41] = target: GalNAc(b1-3)Gal(a1-6)Gal(b1-4)Glc
# Summary of the method: as §1
# [42] = target: GalNAc(b1-3)GalNAc
# Summary of the method: as §1
# [43] = target: GalNAc(b1-3)GlcNAc
# Summary of the method: as §1
# [44] = target: GalNAc(b1-4)Gal(b1-4)Glc
# Summary of the method: as §1
# [45] = target: GalNAc(b1-4)GlcNAc
# Summary of the method: as §1
# [46] = target: GalNAc(b1-4)GlcNAc(b1-2)Man
# Summary of the method: as §1
# [47] = target: GalNAc(b1-4)GlcNAc(b1-2)Man(a1-3)[GalNAc(b1-4)GlcNAc(b1-2)Man(a1-6)]Man(b1-4)GlcNAc(b1-4)GlcNAc
# Summary of the method: as §1
# [48] = target: GalNAc(b1-4)GlcNAc(b1-3)GalNAc(b1-4)GlcNAc
# Summary of the method: as §1
# [49] = target: GalNAc(b1-4)GlcNAc6S
# Summary of the method: as §1
# [50] = target: GalNAc(b1-6)GalNAc
# Summary of the method: as §1
# [51] = target: GalNAc3S(b1-4)GlcNAc
# Summary of the method: as §1
# [52] = target: GalNAc3S(b1-4)GlcNAc3S
# Summary of the method: as §1
# [53] = target: GalNAc3S(b1-4)[Fuc(a1-3)]GlcNAc
# Summary of the method: as §1
# [54] = target: GalNAc4S6S(b1-4)GlcNAc
# Summary of the method: as §1
# [55] = target: GalNAc6S(b1-4)GlcNAc
# Summary of the method: as §1
# [56] = target: Glc(a1-4)Glc
# Summary of the method: as §1
# [57] = target: Glc(a1-4)Glc(a1-4)Glc(a1-4)Glc
# Summary of the method: as §1
# [58] = target: Glc(a1-6)Glc(a1-6)Glc
# Summary of the method: as §1
# [59] = target: Glc(a1-6)Glc(a1-6)Glc(a1-6)Glc
# Summary of the method: as §1
# [60] = target: Glc(b1-4)Glc
# Summary of the method: as §1
# [61] = target: Glc(b1-6)Glc
# Summary of the method: as §1
# [62] = target: GlcA(b1-3)Gal
# Summary of the method: as §1
# [63] = target: GlcA(b1-3)GlcNAc
# Summary of the method: as §1
# [64] = target: GlcA(b1-6)Gal
# Summary of the method: as §1
# [65] = target: GlcA3S(b1-3)Gal(b1-4)GlcNAc(b1-2)Man
# Summary of the method: as §1
# [66] = target: GlcA3S(b1-3)Gal(b1-4)GlcNAc(b1-3)Gal(b1-4)Glc
# Summary of the method: as §1
# [67] = target: GlcNAc(a1-3)Gal(b1-4)GlcNAc
# Summary of the method: as §1
# [68] = target: GlcNAc(a1-4)Gal(b1-3)GlcNAc
# Summary of the method: as §1
# [69] = target: GlcNAc(a1-4)Gal(b1-4)GalNAc
# Summary of the method: as §1
# [70] = target: GlcNAc(a1-4)Gal(b1-4)GlcNAc
# Summary of the method: as §1
# [71] = target: GlcNAc(a1-4)Gal(b1-4)GlcNAc(b1-3)Gal(b1-4)Glc
# Summary of the method: as §1
# [72] = target: GlcNAc(a1-4)Gal(b1-4)GlcNAc(b1-3)Gal(b1-4)GlcNAc
# Summary of the method: as §1
# [73] = target: GlcNAc(a1-4)Gal(b1-4)GlcNAc(b1-3)Gal(b1-4)GlcNAc(b1-3)Gal(b1-4)GlcNAc
# Summary of the method: as §1
# [74] = target: GlcNAc(a1-4)Gal(b1-4)GlcNAc(b1-3)Gal(b1-4)[Fuc(a1-3)]GlcNAc(b1-3)Gal(b1-4)[Fuc(a1-3)]GlcNAc
# Summary of the method: as §1
# [75] = target: GlcNAc(a1-6)Gal(b1-4)GlcNAc
# Summary of the method: as §1
binder,measurement,setting,value
SP16663B-bot-321-25-321 (Bacteroides ovatus) (protein) DDDDEVTMNSKFYLSTKVFPVDSYEASLSVILKDNSVVVNELQPNYRFVACATERLSKDVKITADSDDNLVSAYNKANDTEYNILPAENYSFTNKTVTIENGESVSGDSIKIELLNVGSLTTEGGYLLPVTISSIEGNNLDALSSNRGVVYLKIQNIHVNVESGQPAEGTLIADRSGWTVKVAPTTRGDAKNLIDGTNSDVARDGGAEYWLTVDIGKVQTLTGIRNKCYASSYSPTAVEVFTSSDGAKWKSIGAVTISKSGTQYIKFSKAVETRYLKYYVKQGPNTVSLTEFDLYAK,glycan array binding signal (z-score),[1],-0.878
same,glycan array binding signal (z-score),[2],0.157
same,glycan array binding signal (z-score),[3],-0.215
same,glycan array binding signal (z-score),[4],-0.211
same,glycan array binding signal (z-score),[5],-0.358
same,glycan array binding signal (z-score),[6],0.351
same,glycan array binding signal (z-score),[7],0.198
same,glycan array binding signal (z-score),[8],0.415
same,glycan array binding signal (z-score),[9],0.648
same,glycan array binding signal (z-score),[10],0.3
same,glycan array binding signal (z-score),[11],-0.283
same,glycan array binding signal (z-score),[12],-0.947
same,glycan array binding signal (z-score),[13],-0.196
same,glycan array binding signal (z-score),[14],-0.14
same,glycan array binding signal (z-score),[15],-0.262
same,glycan array binding signal (z-score),[16],-0.478
same,glycan array binding signal (z-score),[17],0.118
same,glycan array binding signal (z-score),[18],0.643
same,glycan array binding signal (z-score),[19],0.96
same,glycan array binding signal (z-score),[20],0.042
same,glycan array binding signal (z-score),[21],-0.022
same,glycan array binding signal (z-score),[22],-0.208
same,glycan array binding signal (z-score),[23],0.504
same,glycan array binding signal (z-score),[24],-0.063
same,glycan array binding signal (z-score),[25],0.866
same,glycan array binding signal (z-score),[26],-0.341
same,glycan array binding signal (z-score),[27],-0.471
same,glycan array binding signal (z-score),[28],0.005
same,glycan array binding signal (z-score),[29],0.289
same,glycan array binding signal (z-score),[30],-0.03
same,glycan array binding signal (z-score),[31],-0.107
same,glycan array binding signal (z-score),[32],0.309
same,glycan array binding signal (z-score),[33],-0.207
same,glycan array binding signal (z-score),[34],-0.597
same,glycan array binding signal (z-score),[35],-0.141
same,glycan array binding signal (z-score),[36],-0.638
same,glycan array binding signal (z-score),[37],-0.298
same,glycan array binding signal (z-score),[38],0.133
same,glycan array binding signal (z-score),[39],0.788
same,glycan array binding signal (z-score),[40],0.043
same,glycan array binding signal (z-score),[41],-0.361
same,glycan array binding signal (z-score),[42],-0.359
same,glycan array binding signal (z-score),[43],-0.426
same,glycan array binding signal (z-score),[44],0.089
same,glycan array binding signal (z-score),[45],1.29
same,glycan array binding signal (z-score),[46],1.72
same,glycan array binding signal (z-score),[47],-0.015
same,glycan array binding signal (z-score),[48],-0.427
same,glycan array binding signal (z-score),[49],-0.779
same,glycan array binding signal (z-score),[50],-0.325
same,glycan array binding signal (z-score),[51],-0.25
same,glycan array binding signal (z-score),[52],-0.087
same,glycan array binding signal (z-score),[53],0.251
same,glycan array binding signal (z-score),[54],-0.392
same,glycan array binding signal (z-score),[55],-0.428
same,glycan array binding signal (z-score),[56],0.248
same,glycan array binding signal (z-score),[57],-0.738
same,glycan array binding signal (z-score),[58],0.136
same,glycan array binding signal (z-score),[59],-0.767
same,glycan array binding signal (z-score),[60],0.122
same,glycan array binding signal (z-score),[61],0.07
same,glycan array binding signal (z-score),[62],0.235
same,glycan array binding signal (z-score),[63],0.051
same,glycan array binding signal (z-score),[64],0.013
same,glycan array binding signal (z-score),[65],0.119
same,glycan array binding signal (z-score),[66],-0.498
same,glycan array binding signal (z-score),[67],-0.117
same,glycan array binding signal (z-score),[68],-0.06
same,glycan array binding signal (z-score),[69],-0.026
same,glycan array binding signal (z-score),[70],0.484
same,glycan array binding signal (z-score),[71],0.036
same,glycan array binding signal (z-score),[72],-0.401
same,glycan array binding signal (z-score),[73],-0.247
same,glycan array binding signal (z-score),[74],0.324
same,glycan array binding signal (z-score),[75],0.121

# From the supplement of paper PMC8728848
